Measurements from PubChem BioAssay AID1159614 (National Center for Advancing Translational Sciences (NCATS), 2016).
The whole screen tested about 45,000 compounds, of which about 65 (0.1%) were called active. Calls follow the shape of the dose curve; as a rule, active = well fitted activation curve with a large enough effect; inconclusive = small, poorly fitted or top-dose-only effect; inactive = no such curve, though single readings can be large or run the other way. Some of the results follow.

molecular target: Galactocerebrosidase (Homo sapiens) (UniProt P54803); experiment: A Novel Cell-Based Assay to Identify Small Molecules for B -Galactocerebrosidase; conditions: 145M-Twi-hGALC-G270D cells (Twitcher mouse brain line with human GALC G270D), HMU-beta-Gal fluorescence, 48 h; series mostly up to 57.5 µM; activation: at the top concentration; also: 0% is about no effect; nearly all actives have a fitted effect of over 65% in size
Summary of the method: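 Mutant human GALC (G270D), stably expressed in a Twitcher mouse brain cell line lacking endogenous GALC, is measured in live-treated cells via 6-hexadecanoylamino-4-methylumbelliferyl-β-galactoside hydrolysis (0.1 mM final, pH 5.2) with fluorescent detection.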

UniProt P54803, sequence (P54803 whole entry, looked up): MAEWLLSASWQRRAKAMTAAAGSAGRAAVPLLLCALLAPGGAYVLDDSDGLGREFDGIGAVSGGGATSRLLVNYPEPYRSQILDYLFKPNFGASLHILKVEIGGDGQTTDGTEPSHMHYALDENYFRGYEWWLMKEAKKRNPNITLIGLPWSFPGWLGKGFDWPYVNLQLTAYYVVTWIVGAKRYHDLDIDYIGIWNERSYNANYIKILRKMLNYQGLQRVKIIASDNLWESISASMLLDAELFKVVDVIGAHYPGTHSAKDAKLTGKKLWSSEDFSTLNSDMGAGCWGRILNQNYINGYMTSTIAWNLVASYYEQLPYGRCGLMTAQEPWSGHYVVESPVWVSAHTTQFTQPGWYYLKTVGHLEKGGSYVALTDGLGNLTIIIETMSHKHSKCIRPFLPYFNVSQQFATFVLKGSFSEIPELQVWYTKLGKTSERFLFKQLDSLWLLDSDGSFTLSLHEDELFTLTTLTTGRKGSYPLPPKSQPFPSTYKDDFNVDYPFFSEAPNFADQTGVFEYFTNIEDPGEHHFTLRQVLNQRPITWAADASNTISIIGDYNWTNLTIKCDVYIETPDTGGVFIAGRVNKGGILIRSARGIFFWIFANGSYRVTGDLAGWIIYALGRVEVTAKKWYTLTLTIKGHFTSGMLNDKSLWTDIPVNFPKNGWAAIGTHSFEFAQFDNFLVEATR

Structure (SMILES) | activation
Cc1cc(NC(=O)c2ccc(Br)o2)cc(-c2nc3ccccc3o2)c1O | inactive: 2.38%
Cc1ccc(-n2nc(C(=O)N3CCN(c4cc(Cl)ccc4C)CC3)c(=O)n(C)c2=O)cc1 | inactive: -4.18%
Cc1cccc(CNC(=O)c2oc3c(c2C)-c2nn(Cc4ccccc4Cl)cc2CC3)c1 | inactive: -23.7%
Cc1c(Cl)cccc1NC(=O)CSc1ncnc2c1sc1ccccc12 | inactive: -3.36%
COc1cc(NC(=O)CCn2c(-c3ccccc3)cc(C(C)=O)c2C)cc(OC)c1 | inactive: -13.9%
Cc1cc(C)c(NC(=O)CSc2ccnc(=O)[nH]2)c(C)c1 | inactive: -13.9%
COc1ccc(NC(=O)C(NS(=O)(=O)c2ccc3c(c2)CCCC(=O)N3)C(C)C)c(OC)c1 (stereo unspecified) | inactive: 0.317%
O=C(COc1ccccc1)NCc1ccc2c(c1)CCN2C(=O)c1ccc(F)cc1 | inactive: -3.08%
Cc1ccc(Cn2c(=O)c3cccnc3n(CC(=O)Nc3cccc(C(F)(F)F)c3)c2=O)cc1 | inactive: -21.1%
Cc1ccc(-n2ncc3c(N4CCCCCC4)ncnc32)cc1 | inactive: -8.45%
Cc1cc(OCC(=O)Nc2ccc(-c3nc4cc(Cl)ccc4o3)cc2)cc(C)c1Cl | inactive: -15.8%
CCc1ccc(C2CC(=O)c3c([nH]c(C(=O)OCC4CCCCC4)c3C)C2)cc1 (stereo unspecified) | inactive: -21.9%
NS(=O)(=O)c1ccc(CCNC(=O)C2COc3ccccc3C2)cc1 (stereo unspecified) | inactive: -9.81%
COc1ccc(NS(=O)(=O)c2cc3[nH]c(=O)c(=O)[nH]c3cc2C)cc1Cl | inactive: 3.65%
Cn1cc(S(=O)(=O)N2CCCCCC2)cc1C(=O)N1CCN(c2ccc(F)cc2)CC1 | inactive: 3.34%
CCOc1ccc(/C=C/c2nc(C#N)c(N3CCN(c4ccc(OC)cc4)CC3)o2)cc1 | inactive: -6.24%
CCC(=O)N1CCc2cc(Br)cc(S(=O)(=O)CCC(=O)NCCc3ccc(OC)c(OC)c3)c21 | inactive: -4.18%
CCOc1ccc(NC(=O)C(=O)NCCc2csc(-c3ccc(F)cc3)n2)cc1 | inactive: -12.2%
CCc1cccc(NC(=O)Nc2ccc3c(c2)N(C)C(=O)c2ccccc2S3)c1 | inactive: -9.62%
CCN(CC)CCOc1ccc2c(c1)C(=O)c1cc(OCCN(CC)CC)ccc1-2 | inactive: -8.89%
CN(C(=O)C1CCCN(c2ncnc3c2nc2n3CCCCC2)C1)c1ccccc1F (stereo unspecified) | inactive: -18.6%
CCN(CC)CC(C)CNC(=O)CN1C(=O)CSc2ccc(S(=O)(=O)N3CCOCC3)cc21 (stereo unspecified) | inactive: -0.416%
COc1cc(OC)c(NC(=O)CN2C(=O)CCn3nc(-c4cccn4C)cc32)cc1Cl | inactive: 1.38%
Cc1ccc(NC(=O)Cc2c(C(=O)O)c(C)cn2C)cc1Cl | inactive: -10.5%

Structure (SMILES) | activation
CC(C)OCCCn1c(SCc2ccccc2C#N)nc2c(sc3ccccc32)c1=O | inactive: -9.3%
CCC(=O)N1CCc2cc(S(=O)(=O)NC(Cc3ccccc3)C(=O)Nc3ccc(C)cc3)ccc21 (stereo unspecified) | inactive: -8.72%
Cc1ccc(NC(=O)c2sc3nc(-c4cc5ccccc5oc4=O)[nH]c(=O)c3c2C)c(C)c1 | inactive: -10.4%
COc1cc(C(=O)Nc2cc3c(cc2C)n(C)c(=O)c(=O)n3C)cc(OC)c1OC | inactive: -19.6%
COc1ccccc1-c1noc(-c2ccc(N3CCC(C)CC3)c([N+](=O)[O-])c2)n1 | inactive: -23%
CCOc1ccc(-c2cc(OC(=O)c3ccc(F)cc3)c3c(C)oc(C)c3c(=O)c2)cc1 | inactive: -11.7%
CCOc1ccc(-n2c(SCc3ccc(C(=O)OC)o3)nc3c([nH]c4ccccc43)c2=O)cc1 | inactive: -10.3%
CCN1C(=O)c2ccccc2Sc2ccc(NC(C)=O)cc21 | inactive: -30.4%
COc1cc(C(=O)Nc2cc(C)ccc2OCc2cc(=O)n3c(C)csc3n2)cc(OC)c1OC | inactive: -3.66%
O=C(CC1Sc2ccc(C(F)(F)F)cc2NC1=O)Nc1ccc(Cl)c(C(F)(F)F)c1 (stereo unspecified) | inactive: -13.6%
O=C(Nc1ccc(Br)cc1F)c1cc(S(=O)(=O)NCc2ccc(F)cc2)ccc1F | inactive: -10.1%
COc1ccc(NC(=O)c2cc3c(s2)-c2c(C)cccc2OC3)c(OC)c1 | inactive: -10.9%
CCOC(=O)C1CCCN(S(=O)(=O)c2ccc3c(c2)CCCN3C(C)=O)C1 (stereo unspecified) | inactive: -12.5%
COc1ccc(CCNC(=O)c2cc3c(-c4ccccc4F)nn(C)c3s2)c(OC)c1 | inactive: -6.2%
Fc1ccc(-n2cc(-c3ccccc3)c3c(NC4CCCCC4)ncnc32)cc1 | inactive: -4.04%
CCOC(=O)c1cccc(NC(=O)c2cc3c(=O)n(Cc4ccccc4)ccc3nc2C)c1 | inactive: -31.1%
CSc1ncc(C(=O)Nc2ccccc2C(=O)c2ccccc2)c(C(F)(F)F)n1 | inactive: 2.23%
CCc1nn(CC(=O)NCCCN(CC)CC)c(=O)c2cc3sc(C)cc3n12 | inactive: -12.3%
CCCCNc1nc(Oc2ccc(=O)[nH]n2)nc(N(C)C)n1 | inactive: 6%
C=C(C)Cn1c(=O)c2c(nc3n2CCN3c2ccc(CC)cc2)n(C)c1=O | inactive: -2.8%
Fc1ccc(-c2nc(Nc3cccc(Cl)c3)nc3c2COc2ccccc2-3)cc1 | inactive: -7.27%
CCn1c2ccccc2c2nnc(N3CCN(c4cc(C)ccc4C)CC3)nc21 | inactive: -8.1%
O=C(CCC1N=C2c3ccccc3N=C(SCc3ccccc3F)N2C1=O)NC1CCCCC1 (stereo unspecified) | inactive: -17.9%
Cc1ccc(-n2ncc3c(NCCCN4CCOCC4)ncnc32)cc1 | inactive: -10.3%

Structure (SMILES) | activation
COc1cccc(-n2c(=O)c3c(C)c(C(=O)N(C)C)sc3n(Cc3ccc(F)cc3Cl)c2=O)c1 | inactive: -16.7%
CCOc1ccccc1NC(=O)c1cc2c(Cl)nc3ccccc3c2s1 | inactive: 1.82%
COc1ccc(NC(=O)C2Cc3ccccc3N2C(=O)c2ccccc2)c(OC)c1 (stereo unspecified) | inactive: -0.656%
COc1ccc(N2CCN(S(=O)(=O)c3ccc4c(c3)CC(C)N4C(C)=O)CC2)cc1 (stereo unspecified) | inactive: -15.5%
Cn1c(=O)n(-c2ccc(F)c(Cl)c2)c(=O)c2sc3ccccc3c21 | inactive: -0.0399%
CCOC(=O)c1c(Nc2ccc(C)cc2)nnc(-c2ccccc2)c1-c1ccccc1 | inactive: -36.4%
O=C1CC2(CCCC2)CC(=O)N1 | inactive: -4.45%
CC1=C(C(=O)OC2CCCCCC2)C(c2c(F)cccc2Cl)CC(=O)N1 (stereo unspecified) | inactive: 6.1%
Cc1ccc(Cl)cc1NC(=O)c1oc2c(c1C)-c1[nH]ncc1CC2 | inactive: -31.4%
COc1ccc(N(Cc2cccs2)C(=O)COc2cccc(Cl)c2)cc1 | inactive: -8.67%
CCN(CCCNC(=O)c1c(C)oc2ncn(CC(C)C)c(=O)c12)Cc1ccccc1 | inactive: -7.64%
COC(=O)CCSc1nc2sc3c(c2c(=O)n1Cc1ccccc1)CCC(C(C)(C)C)C3 (stereo unspecified) | inactive: -8.84%
CCc1ccccc1NS(=O)(=O)c1ccc(OC)c2ncccc12 | inactive: 6.15%
CCN(CC)c1ccc(C(=C2C=CC(=[N+](CC)CC)C=C2)c2cc(S(=O)(=O)O)ccc2S(=O)(=O)[O-])cc1 | inactive: -9.95%
CCC1CCCCN1C(=O)c1ccc2c(c1)N(Cc1cccc(Cl)c1)C(=O)c1ccccc1S2(=O)=O (stereo unspecified) | inactive: -5.59%
Cc1ccc(NC(=O)CSc2nc3ccccc3c3nc(CCn4c(C)nc5ccccc54)nn23)cc1F | inactive: -12.9%
Cc1c2cnn(-c3ccccc3)c(=O)c2c(C)n1CCCC(=O)Nc1ccc(F)cc1F | inactive: -11.2%
O=C(c1ccc2c(Cl)c3c(nc2c1)CCCC3)N1CCN(c2ccccc2)CC1 | inactive: 7.89%
CCCc1nnc(NC(=O)c2nc(S(=O)(=O)Cc3ccc(C)cc3)ncc2Cl)s1 | inactive: -13.2%
CC(C)(C)C1CCc2onc(C(=O)Nc3sc4c(c3C(N)=O)CCCC4)c2C1 (stereo unspecified) | inactive: -22.8%
NC(=O)c1cc(S(=O)(=O)NCC2CCC(C(=O)Nc3cccc(Cl)c3)CC2)cs1 (stereo unspecified) | inactive: -15.8%
Cc1c(Cl)cccc1NC(=O)CCS(=O)(=O)c1ccc(Br)s1 | inactive: -10.5%
CCOC(=O)c1cc(-c2ccccc2)n(CCCC(=O)Nc2ccc(CC)cc2)c1C | inactive: 0.948%
CCOc1ccccc1NS(=O)(=O)c1c(-c2ccc(C)cc2)csc1C(=O)OC | inactive: -5.71%

Structure (SMILES) | activation
Fc1ccc(CNc2ncnc3c2c(-c2ccccc2)cn3-c2ccccc2)cc1 | inactive: -7.52%
Cn1c(=O)n(C)c2cc(S(=O)(=O)Nc3ccccc3C(=O)O)ccc21 | inactive: -18.1%
COCCNC(=O)c1ccc2c(c1)N(Cc1cccc(Cl)c1)C(=O)c1ccccc1S2=O (stereo unspecified) | inactive: -4.11%
CN(C(=O)CSc1nnc2[nH]c(=O)cc(-c3ccccc3)n12)c1ccccc1 | inactive: -6.36%
Cc1ccc(C)c(NC(=O)CCNS(=O)(=O)c2ccc3c(c2)CCCC(=O)N3)c1 | inactive: -11.9%
CCOC(=O)c1cc(-c2ccccc2)n(CC(=O)NCc2ccccc2OC)c1C | inactive: -11.1%
O=C(Nc1ccc(F)c(F)c1)C1CCCN(S(=O)(=O)c2cccc3nonc23)C1 (stereo unspecified) | inactive: -18%
Cc1ccc(C)c(N2CCN(C(=O)CN3C(=O)CSc4c3c(C)nn4-c3ccccc3)CC2)c1 | inactive: -12.5%
COc1ccccc1NC(=O)CSCc1cc(=O)c2c(C)cc(C)cc2[nH]1 | inactive: -24.2%
COc1ccc(C(=O)CCC(=O)Nc2ccccc2C)cc1 | inactive: -14.7%
CC(C)(C)C1CCc2nc(NC(=O)Cc3ccc(Cl)cc3)sc2C1 (stereo unspecified) | inactive: -22.5%
CCC(Sc1nncn2c1cc1sccc12)C(=O)Nc1cccc(OC)c1 (stereo unspecified) | inactive: -5.53%
Cc1cccc(NC(=O)C2CCCN(S(=O)(=O)c3c(C)noc3/C=C/N(C)C)C2)c1C (stereo unspecified) | inactive: -8.15%
COc1ccc(N(C)C(=O)NCc2noc3ccc(C)cc23)c(OC)c1 | inactive: -13.9%
CCCNC(=O)Nc1cc(C(=O)NCc2cccc(OCC)c2)ccc1N1CCCC1 | inactive: -9.76%
Cc1cc(C)c2c(=O)cc(CSCC(=O)Nc3nnc(C)s3)[nH]c2c1 | inactive: 7.32%
Cc1cc2nc3c(=O)n(C)c(=O)n(C)c3nc2cc1N=CN(C)C | inactive: -4.3%
CCOC(=O)CC(NC(=O)Cn1nnc(-c2ccccc2C)n1)c1ccc(OC)cc1 (stereo unspecified) | inactive: -10.2%
CCC(=O)N1CCc2cc(Br)cc(S(=O)(=O)CCC(=O)Nc3ccccc3C)c21 | inactive: -3.1%
C/C(=C(\CCOP(=O)(O)O)SC(=O)c1ccccc1)N(C=O)Cc1cnc(C)nc1N | inactive: -8.51% [at 5.77 µM]
Cc1ccc(CN2CCN(C3CCN(C(=O)OC(C)(C)C)CC3)C(=O)C2=O)cc1 | inactive: -0.364%
CCN(CC)CCCNC(=O)c1oc2c(c1C)-c1nn(Cc3ccc(Cl)cc3)cc1CC2 | inactive: -11.1%
Cc1ccc2occ(CC(=O)Nc3ccc(S(N)(=O)=O)cc3)c2c1 | inactive: -11.6%
COc1ccc(NC(=O)CCc2c(C)nn(-c3ccc(N4CCOCC4)nn3)c2C)cc1Cl | inactive: 2.01%
